# Reference: the supplement of paper PMC3334620
# Whole data set: some 33,000 sequences, median “E-score (-0.5 to 0.5)” near -0.013, cut for the highest 2% near 0.3. This is one part of the list.
# Target: T1, Msn1 (UniProt P22148)
# T1 sequence: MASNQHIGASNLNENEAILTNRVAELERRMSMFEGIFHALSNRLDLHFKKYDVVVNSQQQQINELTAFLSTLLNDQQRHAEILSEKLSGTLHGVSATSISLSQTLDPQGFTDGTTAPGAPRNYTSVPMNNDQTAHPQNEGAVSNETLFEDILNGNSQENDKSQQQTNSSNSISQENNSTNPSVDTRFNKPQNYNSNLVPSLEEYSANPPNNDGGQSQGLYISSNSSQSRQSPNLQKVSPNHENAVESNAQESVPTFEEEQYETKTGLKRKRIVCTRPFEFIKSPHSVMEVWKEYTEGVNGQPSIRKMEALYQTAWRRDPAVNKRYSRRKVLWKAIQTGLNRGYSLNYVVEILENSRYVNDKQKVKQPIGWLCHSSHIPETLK
# Experiment: PBM E-score (8-mer binding enrichment) (E-score (-0.5 to 0.5)); higher = stronger / more preferred TF binding; most listed sequences are background and not binding sites
# Conditions: protein concentration: 200 nM; construct: GST-full length
# Protocol: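 Universal 'all 10-mer' protein binding microarrays (Agilent AMADID 015681) probed with GST-tagged S. cerevisiae TFs (full-length or DBD) made by in vitro transcription/translation (PURExpress), about 100-200 nM. Bound TF was detected with fluorescent anti-GST. Each ungapped 8-mer (which stands for itself and its reverse complement) is scored by the PBM enrichment score (E-score), a modified Wilcoxon-Mann-Whitney statistic from -0.5 to +0.5, computed with the Universal PBM Analysis Suite. Scale: above 0.35 generally sequence-specific binding.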
row,Sequence,PBM E-score
1,AATCCAGC,-0.0771
2,CCACACTA,0.0776
3,CCTATGTC,0.254
4,AGCCCCAA,-0.253
5,AACTGTTC,0.0994
6,ACGCGCAG,-0.098
7,GAAATCGC,0.0209
8,CCCCCTAG,-0.398
9,ATCACGTA,-0.078
10,GCCACACC,-0.0027
11,ATTTGTAG,0.162
12,GCACGTCA,-0.0594
13,CCTACAAC,0.0278
14,ATGATTTG,0.0798
15,CATGTTAG,0.00794
16,AGCCGGCA,0.00158
17,AGCCAACA,-0.114
18,ATCTCAGG,0.106
19,AGAGCGAT,-0.0544
20,ACGCGTGC,-0.0356
21,AGGGTGGG,-0.0627
22,ACCAAAGC,-0.0563

row,Sequence,PBM E-score
1,CACTTTGA,0.0229
2,TAGGCATA,-0.0387
3,GCATTGGC,-0.303
4,GCAATGTA,0.0757
5,ACCCCTGC,-0.378
6,CGAATTTA,0.0939
7,AAGCGCCT,-0.16
8,GAGGGCCC,-0.296
9,GCCTGCCC,-0.224
10,TATTATGA,0.0243
11,CTGAGTTA,-0.135
12,AACCGCGG,0.141
13,CGGGAGGC,-0.43
14,ATTGGATC,-0.0161
15,TGGTACAA,0.386
16,ACTAATCC,-0.0352
17,GCGTTAAC,0.0136
18,CTTTATGC,0.0705
19,TTGTAAAA,0.0512
20,ACATCGAG,0.00509
21,ACAGAAAT,0.169
22,TCGAAGAA,-0.0428

row,Sequence,PBM E-score
1,ACCTGTAA,-0.124
2,CCCAGTAA,-0.047
3,AGGCTCAT,-0.194
4,ACCAGAAA,-0.00853
5,ACTATCTG,-0.00414
6,AAGTGCAT,-0.0129
7,CCCTCCAA,-0.16
8,ACAAGGAG,0.0113
9,ATTCGCAG,0.166
10,AAGTTAGA,0.236
11,ACAAGATG,0.15
12,TAATCCGA,0.0246
13,CTTAAAAG,0.0822
14,CGAGATAG,-0.11
15,CCATACAC,0.104
16,AAGCCACG,-0.112
17,AGCGCGAG,-0.0445
18,AACGGCTG,-0.0272
19,AAATTGGC,-0.118
20,CTAGGATA,-0.13
21,ACGCTATG,-0.0165
22,CCATTCCC,-0.317

row,Sequence,PBM E-score
1,CGTGAACG,-0.0459
2,AAAACGTA,0.00826
3,CGTTCACC,-0.00692
4,ATTGATTG,0.0853
5,ATAAATTG,0.225
6,GCTTTAAC,0.0829
7,AAAACATA,0.0922
8,AGTATCTC,0.0248
9,AATACGTG,0.0479
10,GACGGATC,0.114
11,GACTTTGC,0.188
12,CCCGCGCG,0.178
13,GAGAGAAA,0.00902
14,GCCAGCTA,-0.128
15,CGGGTGAA,0.099
16,GGCCGGAC,0.158
17,ATCCAGGG,-0.162
18,AGTCCGGG,0.0714
19,CGTCGCCA,-0.0547
20,CTGCCTAC,0.017
21,TAACCGTA,-0.089
22,GGACCCAA,-0.153

row,Sequence,PBM E-score
1,GCTATTCA,-0.0315
2,TAATTAGA,0.216
3,AATGCCGG,0.0952
4,GTCAGCAA,0.0149
5,ACCATCGA,-0.0448
6,AGCCATTA,0.105
7,ACACGTTC,-0.0287
8,TGACATCA,0.257
9,AAGAAACC,-0.0163
10,ACGGCCGG,0.0031
11,ACATTTGA,0.311
12,TAAGCGAA,-0.0548
13,AATCTTGC,0.0456
14,CTACATAA,-0.237
15,GTTGCAAC,0.0496
16,CATAGGCC,-0.112
17,CCTGGAGC,-0.216
18,ACTATTAC,0.0424
19,TATAACCA,0.0511
20,CTAAAGTC,0.0857
21,CTTGGCGA,-0.19
